Test results reported in the supplement of paper PMC7125110.
± gives the standard error. This sample is rich in variants without activity.

B1: glmS ribozyme (parent)
chain: AUAAAAGCGCCAGAACUACAGAAAUGUAGUUGACGAGGAGGAGGUUUAUCGAAUUUUCGGCGGAUGCCUCCAAA

Experiments:
Details in all cases: with glucosamine-6-phosphate
[1] = variants of: B1; assay: self-cleavage kobs at 40 uM GlcN6P; higher = faster cleavage; RNA array
Procedure, shortened: (§1)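 Barcoded ribozyme variants, transcribed in situ by E. coli RNA polymerase on sequenced MiSeq chips, were followed via a hybridised Cy3 probe at 37 °C. Glucosamine-6-phosphate ranged from 40 μM to 10 mM in HEPES/KCl/Mg(OAc)2 buffer. kobs came from decay fits to per-tile medians, and kcat and KM from weighted Michaelis–Menten fits.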

[2] = variants of: B1; assay: self-cleavage kobs at 2500 uM GlcN6P; higher = faster cleavage; RNA array
Procedure, shortened: as §1

[3] = variants of: B1; assay: self-cleavage kobs at 10000 uM GlcN6P; higher = faster cleavage; RNA array
Procedure, shortened: as §1

[4] = variants of: B1; assay: self-cleavage kobs at 640 uM GlcN6P; higher = faster cleavage; RNA array
Procedure, shortened: as §1

[5] = variants of: B1; assay: self-cleavage kobs at 160 uM GlcN6P; higher = faster cleavage; RNA array
Procedure, shortened: as §1

Row | Variant | self-cleavage kobs at 40 uM GlcN6P [1] [s⁻¹] | self-cleavage kobs at 2500 uM GlcN6P [2] [s⁻¹] | self-cleavage kobs at 10000 uM GlcN6P [3] [s⁻¹] | self-cleavage kobs at 640 uM GlcN6P [4] [s⁻¹] | self-cleavage kobs at 160 uM GlcN6P [5] [s⁻¹]
1 | C8G U30C | < 1e-05 | < 1e-05 | < 1e-05 |  | 
2 | C8G U47A C70G | < 1e-05 | < 1e-05 | < 1e-05 | < 1e-05 | < 1e-05
3 | C8G U47A G62C | < 1e-05 |  |  |  | 
4 | C8G U47G U49G | < 1e-05 |  |  |  | 
5 | C8G U49C | < 1e-05 | < 1e-05 | < 1e-05 | < 1e-05 | < 1e-05
6 | C8G U49G | < 1e-05 |  | < 1e-05 | < 1e-05 | 
7 | C8G U54A | < 1e-05 | < 1e-05 |  | < 1e-05 | < 1e-05
8 | C8G U55C | < 1e-05 |  |  |  | 
9 | C8G U56G C70U C71A | < 1e-05 |  |  |  | 
10 | C8G U57A | < 1e-05 | < 1e-05 | < 1e-05 | < 1e-05 | 
11 | C8G U65C | < 1e-05 | < 1e-05 |  | < 1e-05 | < 1e-05
12 | C8G U69C | < 1e-05 | < 1e-05 |  |  | 
13 | C8U A12G | < 1e-05 | < 1e-05 | < 1e-05 | < 1e-05 | < 1e-05
14 | C8U A14G G40U | < 1e-05 | < 1e-05 | < 1e-05 | < 1e-05 | < 1e-05
15 | C8U A15U U30G G35C G41U | < 1e-05 | < 1e-05 |  | < 1e-05 | 
16 | C8U A33C C71A | < 1e-05 |  |  |  | 
17 | C8U A33C G41A | < 1e-05 | < 1e-05 | < 1e-05 |  | 
18 | C8U A36C C67U | < 1e-05 |  |  |  | 
19 | C8U A39C | < 1e-05 | < 1e-05 | < 1e-05 | < 1e-05 | < 1e-05
20 | C8U A39G | < 1e-05 | < 1e-05 | < 1e-05 |  | < 1e-05
21 | C8U A53G | < 1e-05 | < 1e-05 | < 1e-05 | < 1e-05 | 

Row | Variant | self-cleavage kobs at 40 uM GlcN6P [1] [s⁻¹] | self-cleavage kobs at 2500 uM GlcN6P [2] [s⁻¹] | self-cleavage kobs at 10000 uM GlcN6P [3] [s⁻¹] | self-cleavage kobs at 640 uM GlcN6P [4] [s⁻¹] | self-cleavage kobs at 160 uM GlcN6P [5] [s⁻¹]
22 | C8U A53U G63U | < 1e-05 | < 1e-05 |  | < 1e-05 | < 1e-05
23 | C8U C10A G32A G41A | < 1e-05 | < 1e-05 |  | < 1e-05 | < 1e-05
24 | C8U C10G A15C U45A | < 1e-05 |  |  | < 1e-05 | 
25 | C8U C10U | < 1e-05 |  |  | < 1e-05 | 
26 | C8U C11G | < 1e-05 | < 1e-05 | < 1e-05 | < 1e-05 | < 1e-05
27 | C8U C11U A12C A48G G62A C67U | < 1e-05 | < 1e-05 | < 1e-05 |  | 
28 | C8U C11U G44A A48G G63U | < 1e-05 | < 1e-05 | < 1e-05 | < 1e-05 | 
29 | C8U C11U U45G A53U U54A C70G | < 1e-05 | < 1e-05 |  | < 1e-05 | 
30 | C8U C16G A36G | < 1e-05 |  | < 1e-05 |  | 
31 | C8U C16U | < 1e-05 | < 1e-05 |  | < 1e-05 | < 1e-05
32 | C8U C16U C67G | < 1e-05 |  | < 1e-05 |  | 
33 | C8U C70U | < 1e-05 |  |  |  | < 1e-05
34 | C8U G9A C50G C67U | 6.37e-05 ± 1.7e-05 | 0.000169 ± 4.6e-05 | 6.88e-05 ± 1.6e-05 |  | 
35 | C8U G13A | < 1e-05 | < 1e-05 |  | < 1e-05 | < 1e-05
36 | C8U G13C G51A | < 1e-05 |  |  |  | 
37 | C8U G13U A14G C16A A48C C71G | < 1e-05 |  |  |  | 
38 | C8U G32A G41U | < 1e-05 | < 1e-05 | < 1e-05 | < 1e-05 | < 1e-05
39 | C8U G32C | < 1e-05 | < 1e-05 | < 1e-05 | < 1e-05 | < 1e-05
40 | C8U G32U | < 1e-05 | < 1e-05 | < 1e-05 | < 1e-05 | < 1e-05
41 | C8U G35C A39U C50U U55A | < 1e-05 | < 1e-05 |  | < 1e-05 | < 1e-05
42 | C8U G35C A42G G43C C71G | < 1e-05 |  | < 1e-05 |  | 
